Data reported in PubChem BioAssay AID1345082 (National Center for Advancing Translational Sciences (NCATS), 2018).
Hit rate of the full screen: of about 94,000 compounds, about 4,000 (4.3%) were called active. Inconclusive means that the source gave no clear call. Such entries were picked first, then a sample of the others. Calls follow the shape of the dose curve; as a rule, active = well fitted inhibition curve with a large enough effect; inconclusive = small, poorly fitted or top-dose-only effect; inactive = no such curve, though single readings can be large or run the other way. Where the call is inconclusive, the potency comes from a doubtful curve fit.

Assay: Cytotoxic Profiling in NIH 3T3 Cell Line of Diverse Libraries Using Quantitative High-Throughput Screening; also: nearly all actives have a fitted effect of over 55% in size
Details: NIH 3T3 viability, CellTiter-Glo ATP luminescence, 48-72 h; series mostly up to 96.7 µM
Method in brief: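 Mouse fibroblast NIH 3T3 cells, 400 per well, received compound via pintool and were incubated for 48 or 72 hr prior to CellTiter-Glo ATP luminescence measurement.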
Potency is read from the fitted curve at half-maximal effect; tags tell the direction and shape of the fitted curve.

| Compound | Potency |
| --- | --- |
| Cn1ncc2c(C(=O)Nc3ccnc(Cl)c3)cc(-c3ccc(C(F)(F)F)cc3)nc21 | inconclusive: 7.08 µM [inhibitor, full curve, poor fit] |
| CCCN1CCC2(CCN([S+](=O)([O-])c3c(C)noc3C)CC2)Oc2ccccc21 | inconclusive: 44.7 µM [inhibitor, partial curve, poor fit] |
| COc1cccc(CCC(=O)Nc2cccc(-c3nnc4n3CCCC4)c2)c1 | inactive |
| CC(C)(C)c1ccc(C(=O)N2CCN(c3cc(C(F)(F)F)ncn3)CC2)cc1 | inconclusive: 10 µM [inhibitor, full curve, poor fit] |
| Cc1ccccc1Oc1ncccc1CNC(=O)c1ccc2c(c1)OCO2 | inconclusive: 89.1 µM [inhibitor, single point] |
| Cc1oc(-c2cccc(Cl)c2)nc1CN1CCCC(C(N)=O)C1 (stereo unspecified) | inconclusive: 89.1 µM [inhibitor, single point] |
| Cc1noc2c(NC(C)C)cc(-c3ccsc3)nc12 | inconclusive: 56.2 µM [inhibitor, partial curve] |
| COCCN1C(=O)CS(=O)(=O)C12CCN(C(=O)Cn1c(=O)oc3ccccc31)CC2 | inactive |
| Cc1ccc(C)c(C(=O)N2CCC3(CC2)NC(=O)N(c2ccccc2)N3)c1 | inconclusive: 31.6 µM [inhibitor, partial curve, poor fit] |
| CC(C)c1ccc(CN2C[C@@H]3[C@H](C2)N(Cc2ccccc2)C(=O)C(C)(C)[S+]3(=O)[O-])cc1 | inconclusive: 70.8 µM [inhibitor, single point] |
| COCCNC(=O)c1ccc(OC2CCN(Cc3cccc4nonc34)CC2)c(Cl)c1 | inconclusive: 56.2 µM [inhibitor, partial curve, poor fit] |
| O=C(NCC1CCOCC1)c1cnc2n[nH]c(-c3ccccc3)c2n1 | active: 79.4 µM |
| O=C1NCc2ccccc2CC12CCCN2Cc1ccccc1OC(F)(F)F (stereo unspecified) | inconclusive: 50.1 µM [inhibitor, partial curve, poor fit] |
| COC1CCN(C(=O)C(C)(C)Oc2nn(CCOc3ccccc3)c3ccccc23)CC1 | inconclusive: 56.2 µM [inhibitor, partial curve, poor fit] |
| COc1ccc(F)cc1-c1cccc(C(=O)NCCNC(=O)Cc2ccc(F)cc2)c1 | inconclusive: 44.7 µM [inhibitor, partial curve, poor fit] |
| Cn1c(C(=O)N2CCCC2)cc2c1CCN(Cc1ccccc1)C2 | inconclusive: 50.1 µM [inhibitor, partial curve, poor fit] |
| COCC(=O)NCCC1CCN(C(=O)Nc2ccc(C)cc2)CC1 | inactive |
| N#Cc1ccc(S(=O)(=O)N[C@H]2[C@H](O)[C@H](O)C[C@@H]2c2ccc(C(F)(F)F)cc2)cc1 | inconclusive: 89.1 µM [inhibitor, partial curve] |
| Cc1cc(F)ccc1NC(=O)c1cc2n(n1)CC(c1ccc(Cl)cc1)OC2 (stereo unspecified) | inconclusive: 50.1 µM [inhibitor, partial curve, poor fit] |
| COc1ccc(Nc2ccnc(N3CCC(N[S+](=O)([O-])c4cccc(C(F)(F)F)c4)CC3)n2)cc1 | active: 17.8 µM |
| O=C(Nc1ccc2ncnc(N3CCCC3)c2c1)c1cccc(Br)c1 | active: 14.1 µM |
| COc1ccc(-c2cccc(C(=O)N3CCC(NC(=O)c4ccccc4)CC3)c2)nn1 | inactive |

| Compound | Potency |
| --- | --- |
| O=C(NCCN1CCOCC1)c1cc(-c2cc(Cl)cc(Cl)c2)c2nncn2n1 | inactive |
| COc1cccc(NC(=O)N2CCC(Oc3ncccc3C(=O)N3CCOCC3)C2)c1 (stereo unspecified) | inactive |
| CCCNC(=O)NC[C@@H]1C=C(C)[C@H](Cc2nc3ccccc3[nH]2)C[C@H]1C(C)C | active: 35.5 µM |
| Clc1ccccc1C1(c2ccnc(NCCc3ccccn3)n2)CCNCC1 | inconclusive: 89.1 µM [inhibitor, partial curve, poor fit] |
| CC(=O)N1CCN(C(=O)C2CCc3nnc(CN[S+](=O)([O-])c4ccccc4Cl)n32)CC1 (stereo unspecified) | inactive |
| COc1ccccc1Cn1c(=O)c(C(=O)NCCCc2ccccc2)nc2cccnc21 | inconclusive: 50.1 µM [inhibitor, partial curve, poor fit] |
| COCCOC1CN(C2CCNCC2)C12CCCCC2 (stereo unspecified) | inconclusive: 50.1 µM [inhibitor, partial curve, poor fit] |
| Cc1nnnn1CCC(=O)NCC1CCN(c2cnn(C)c(=O)c2)C1 (stereo unspecified) | inactive |
| CC(C)CNC(=O)CC(c1ccc(F)cc1F)c1c[nH]c2ccccc12 (stereo unspecified) | inconclusive: 50.1 µM [inhibitor, partial curve, poor fit] |
| O=C1CCc2cc(NC(=O)c3n[nH]c4ccccc34)ccc2N1 | inconclusive: 44.7 µM [inhibitor, partial curve, poor fit] |
| Cc1cccc(C)c1-c1nc(C(=O)N(C)C)n2ccccc12 | inconclusive: 79.4 µM [inhibitor, partial curve] |
| N#Cc1ccc(C(=O)NC2CCN(C(=O)N3CC4CC(C3)[C@H]3CCCC(=O)N3C4)CC2)cc1 (stereo partly specified) | inactive |
| CN1CCC(N2CCN(C(=O)c3cc(-c4ccc(F)cc4)cn3C)CC2)CC1 | inconclusive: 44.7 µM [inhibitor, partial curve, poor fit] |
| Cn1nccc1CN1CCn2c(nn(-c3ccc(Cl)cc3)c2=O)C1 | inconclusive: 28.2 µM [inhibitor, partial curve] |
| CC(C)N(Cc1cnn(C)c1)Cc1cn(Cc2ccccc2)nc1-c1ccc2c(c1)OCO2 | inactive |
| CNc1nc2c(s1)C(c1cccc(F)c1)CC(=O)N2 (stereo unspecified) | inactive |
| O=C(c1ccccc1Cl)N1CCC(N2CCCCCC2=O)CC1 | inactive |
| COc1cccc(CN2CCOc3ccc(C(=O)NCc4ccccc4F)cc3C2)n1 | inconclusive: 50.1 µM [inhibitor, single point] |
| Clc1cccc(-c2cnc([C@@H]3COCCN3Cc3cnc[nH]3)[nH]2)c1 | inactive |
| O=C(NCC1CC1)C1CCN(C(=O)c2ccc(-c3cncnc3)cc2)CC1 | inactive |
| Cc1ccc(N2CCN(C(=O)c3ccc(Cn4cccn4)o3)CC2=O)cc1 | inactive |
| COc1ccc(CNC(=O)N2CCCC2c2noc(COc3ccc(C)cc3)n2)cc1 (stereo unspecified) | inconclusive: 39.8 µM [inhibitor, partial curve, poor fit] |

| Compound | Potency |
| --- | --- |
| COc1ccccc1N1CCCc2ncc(C(=O)N3CCCC[C@@H]3Cc3ccccc3)cc21 | inconclusive: 44.7 µM [inhibitor, partial curve, poor fit] |
| CN(CC(=O)O)C(=O)[C@H]1C[C@@](C)(C(=O)O)N(C)[C@H]1c1ccc(Cl)cc1 | inactive |
| O=C(c1ccc(Cl)cc1)N1CCN(c2ccnc3ccnn23)CC1 | inconclusive: 35.5 µM [inhibitor, full curve, poor fit] |
| O=C(NC1CCN(c2cc(-c3cccs3)[nH]n2)CC1)c1ccc(F)c(F)c1 | inconclusive: 44.7 µM [inhibitor, partial curve, poor fit] |
| O=C1NCCCN1C1CCN(Cc2ccccc2OC(F)(F)F)CC1 | inactive |
| O=C(Nc1cccnc1)N1CC2ON=C(C(=O)N3CCN(c4ncccn4)CC3)C2C1 (stereo unspecified) | inactive |
| CC1=C[C@@H](CNS(=O)(=O)c2ccccc2)[C@H](C(C)C)C[C@H]1Cc1nnc(-c2ccncc2)o1 | active: 20 µM |
| Cc1cc2ccccc2nc1-c1cccc(O)c1 | inconclusive: 79.4 µM [inhibitor, single point] |
| CC(C)c1nc2c(c(-c3ccc(O)cc3)n1)CCN(Cc1ccc(C(F)(F)F)cc1)CC2 | active: 39.8 µM |
| NC1CCc2nn(CC(=O)N(Cc3cccs3)C3CCCC3)c(=O)n2CC1 (stereo unspecified) | inactive |
| Cc1ccc(CC(=O)N2CCC[C@H]2c2nc(-c3ccccc3Cl)no2)cc1 | inconclusive: 70.8 µM [inhibitor, single point] |
| CCCOc1cc(C)c2c(c1C)C[C@H](C(C)C(=O)NCc1ccc(OC)cc1)CC2 (stereo partly specified) | inactive |
| O[C@H]1[C@H](NCC2CCCCC2)[C@H]2CO[C@H](O2)[C@@H]1Sc1ccccc1 | inconclusive: 89.1 µM [inhibitor, partial curve, poor fit] |
| COc1ccc(C(=O)N2C[C@@H](Oc3ccccc3)C[C@H]2C(=O)NC2CC2)cc1F | inactive |
| COc1cc(SC)ccc1C(=O)N[C@H]1C[C@@](O)(C(=O)NCCC(N)=O)C[C@@H](O)[C@@H]1O | inactive |
| C=CCCC(CN1CCCC1)Oc1ncc(F)c(N2CCCC2)n1 (stereo unspecified) | inconclusive: 50.1 µM [inhibitor, partial curve, poor fit] |
| CC1(Cc2ccc3c(c2)OCO3)CCCN(C(=O)CCCn2ccnc2)C1 (stereo unspecified) | inconclusive: 39.8 µM [inhibitor, partial curve] |
| COc1ccc(OC)c(NC(=O)Cn2c(N3CCc4ccccc4C3)nc(C)cc2=O)c1 | active: 28.2 µM |
| O=C(NCc1cc2n(n1)CCN(C1CCCCC1)C2)c1cnn2ccccc12 | inconclusive: 89.1 µM [inhibitor, single point] |
| CC1(NC(=O)C2CC2)CN(Cc2nc(-c3ccccc3OCc3ccccc3)cs2)C1 | inconclusive: 56.2 µM [inhibitor, partial curve, poor fit] |
| COc1ccc(-c2ccccc2)cc1N1C(=O)[C@@H]2C[C@H]1CN2C(=O)[C@H]1CCCO1 | inconclusive: 89.1 µM [inhibitor, single point] |
| Cc1ncnc(N2CCC(CO)(Cc3ccccc3C(F)(F)F)CC2)c1C | inconclusive: 63.1 µM [inhibitor, partial curve, poor fit] |
